# Experimental data: PubChem BioAssay AID686978 (National Center for Advancing Translational Sciences (NCATS), 2013)
# The campaign covered roughly 420,000 compounds. About 64,000 (15%) were called active. Inconclusive means that the source gave no clear call. Such entries were picked first, then a sample of the others. Calls come from the whole dose curve; as a rule, active = well fitted inhibition curve with a large enough effect; inconclusive = small, poorly fitted or top-dose-only effect; inactive = flat fitted curve, though single readings scatter. Potencies of inconclusive entries are left out as doubtful fits.
# Assay: qHTS for Inhibitors of human tyrosyl-DNA phosphodiesterase 1 (TDP1): qHTS in cells in absence of CPT; note: nearly all actives have a fitted effect of over 55% in size
# Conditions: DT40 Tdp1-/- hTDP1 cells, no CPT, ATP luminescence, 48 h; activity change, negative = growth inhibition: at 46.2 µM (top of the series) unless noted
# Summary of the method: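 Growth of hTDP1-complemented DT40 Tdp1-knockout cells is measured by ATP luminescence after at least 48 hr compound exposure at 37 °C, with DMSO substituting for the 20 nM CPT used in the parallel screen.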
# % is set by controls: 0 for no effect and ±100 for the full control effect; potency is the fitted concentration of half-maximal effect; tags give direction and shape of the fitted curve.
Compound,Potency,"activity change, negative = growth inhibition"
O=C(COc1ccccc1C(=O)OCC(=O)Nc1cccc2ccccc12)Nc1ccc(Br)cc1,"inconclusive [inhibitor, single point]",–
CC(=O)Oc1ccc(C(=O)[C@H]2[C@H]3C(=O)N(c4ccc5ccccc5c4)C(=O)[C@H]3[C@@H]3C=CC=NN32)cc1,"inconclusive [inhibitor, single point]",–
O=C(Nc1ccc(Cl)c(Cl)c1)NC1CCS(=O)(=O)C1 (stereo unspecified),"inconclusive [inhibitor, single point]",–
CC(C(=O)NCC1CCCCC1)N(C)CC(=O)Nc1ccc(N2CCOCC2)cc1 (stereo unspecified),–,inactive: -9.86%
COC(=O)[C@H](C)NC(=O)Nc1ccc(Oc2ccccc2)cc1,active: 6.31 µM,–
c1ccc(-c2cc(N3CCOCC3)nc3ccccc23)cc1,"inconclusive [inhibitor, partial curve]",–
CCOC(=O)N1CCC(NC(=O)Cc2ccccc2)CC1,–,inactive: -8.78%
O=C(/C=C/c1ccccc1)NNC(=O)C1CC1,–,inactive: -36.1%
Nc1nnc(SCC(=O)Nc2cc(F)ccc2F)s1,–,inactive: 0.473%
CC(/C=C1\SC(=S)N(CCC(=O)Nc2cccc(C(=O)O)c2)C1=O)=C\c1ccccc1,–,inactive: 4.06%
CC1(C)Oc2ccc3ccc(=O)oc3c2/C(=N/O)C1=O,–,inactive: 8.39%
Cc1ccccc1NC(=O)Cc1nc(COC(=O)c2ccc(NC(N)=O)cc2)cs1,"inconclusive [inhibitor, single point]",–
CN(CC(=O)Nc1ccncc1)S(=O)(=O)c1ccc(Br)cc1,"inconclusive [inhibitor, partial curve]",–
COc1ccc(-c2[nH]c3ccccc3c2SCCNC(=O)c2cc3ccccc3oc2=O)cc1,"inconclusive [inhibitor, single point]",–
Clc1ccc(Oc2nc(N3CCOCC3)nc(N3CCOCC3)n2)c(C2CCCCC2)c1,"inconclusive [inhibitor, partial curve]",–
COc1cc2c3nnc(-c4ccc(F)cc4)c-3cn(Cc3ccc(F)cc3)c2cc1OC,active: 2.59 µM,–
O=C1C=C(c2c(O)ccc3ccccc23)c2ccccc2C1=O,active: 1.16 µM,–
O=C(CCSc1ccc(F)cc1)Nc1ccc(-n2cnnn2)cc1,"inconclusive [inhibitor, single point]",–
Cc1cccc(NC2=NC(C)(C)N=C(N)N2)c1,active: 0.164 µM,–
O=C1NCCN(Cc2ccoc2)C1CC(=O)N(CCO)Cc1ccccc1 (stereo unspecified),–,inactive: -24.6%
CCOC(=O)c1c(S(=O)(=O)Nc2ccccc2OCC)c(C)n(C)c1C,–,inactive: 22.6%
CCN(CC)C(=O)c1sc2c(c1C)c(=O)n(CCc1ccccc1)c(=O)n2Cc1cc(C)ccc1C,–,inactive: 2.34%
Cc1cc(NC(=O)Nc2ccc(F)c(Cl)c2)no1,–,inactive: -10.5%
N#CC1(Nc2ccc(-c3ccc(NC4(C#N)CCCC4)cc3)cc2)CCCC1,–,inactive: -18.6%
Cn1nnnc1SCc1ccc(CSc2nnnn2C)cc1,–,inactive: -6.52%
CCOC1=C2[C@@H](CN(S(=O)(=O)c3ccc(C)cc3)[C@H]2c2ccccc2F)[C@H]2C(=O)N(C3CCCCC3)C(=O)[C@H]2C1,"inconclusive [inhibitor, single point]",–

Compound,Potency,"activity change, negative = growth inhibition"
Cc1ccccc1C1(CC(=O)N2CC3(C)CC2CC(C)(C)C3)CC(=O)N(Cc2cccnc2)C1=O (stereo unspecified),active: 20.6 µM,–
Cc1cccc(CSCc2ccc(C(=O)NC3CCCC3)o2)c1,–,inactive: 13.5%
O=C1[C@H]2[C@@H](c3ccccc3)N[C@]3(CCCN(Cc4ccccc4)C3=O)[C@H]2C(=O)N1Cc1ccccc1,"inconclusive [inhibitor, partial curve]",–
COc1ccc(N2CCN(C(=O)C3CCCN(S(=O)(=O)c4c(C)noc4C)C3)CC2)cc1 (stereo unspecified),"inconclusive [inhibitor, partial curve]",–
O=C1NC(=Nc2ccccc2Cl)S/C1=C\c1cccc([N+](=O)[O-])c1O,"inconclusive [inhibitor, partial curve]",–
Cc1ccccc1Cn1cc(NC(=O)COc2ccccc2)cn1,–,inactive: -19.2%
O=C(NCCc1ccc(Cl)cc1)c1ccc(CS(=O)(=O)c2ccc(Cl)cc2)o1,"inconclusive [inhibitor, single point]",–
Cc1cc(=O)oc2cc(OCc3ccc(C(=O)OCC(=O)N(C)C4CCS(=O)(=O)C4)cc3)ccc12 (stereo unspecified),–,inactive: 2.98%
COc1ccccc1NC(=O)CCCn1c(=S)[nH]c2ccccc2c1=O,"inconclusive [inhibitor, single point]",–
CCC(=O)N1CCc2cc(Br)c(S(=O)(=O)CCC(=O)NCCc3ccccc3)cc21,–,inactive: -13.3%
N/C(=N\OC(=O)COc1ccccc1Cl)c1ccc(Cl)cc1,"inconclusive [inhibitor, single point]",–
CC(=O)N1CCN(c2ccc(NC(=O)c3ccc4ccccc4c3)cc2)CC1,"inconclusive [inhibitor, partial curve, poor fit]",–
c1ccc(CN=C2NN=C(c3cc4ccccc4o3)CS2)cc1,–,inactive: -6.59%
Cc1nnc(SCC(=O)Nc2nsc(-c3ccccc3)n2)s1,–,inactive: -24.3%
COc1ccc(Nc2nnc(-c3ccc(C)cc3)c3ccccc23)cc1C(=O)N1CCCCC1,"inconclusive [inhibitor, single point]",–
CCOc1cc(CNc2ccc3cn[nH]c3c2)ccc1OC,active: 20.6 µM,–
Cc1cc(C(=O)N/N=C/c2ccc(Cl)c([N+](=O)[O-])c2)c(C)n1-c1ccc(F)cc1,active: 14.6 µM,–
NC(=S)NN=Cc1nccc2ccccc12,active: 2.06 µM,–
Cn1ccsc1=NC(=O)c1ccc(S(C)(=O)=O)cc1,–,inactive: -21.6%
C=CCn1c(C(C)NC(=O)CC)nc2ccccc21 (stereo unspecified),"inconclusive [inhibitor, full curve]",–
CCc1ccc(-n2c(=O)c3ccccc3n(CC(=O)NCc3ccco3)c2=O)cc1,–,inactive: -15.7%
COc1cc(C2c3cc4c(cc3OC(NCCc3ccccc3)C2C)OCO4)cc(OC)c1OC (stereo unspecified),active: 0.82 µM,–
O=C(CSc1nnc(Nc2ccccc2)s1)Nc1ccc(S(=O)(=O)N2CCOCC2)cc1,"inconclusive [inhibitor, single point]",–
CC(=O)Nc1ccc(/C=C2\C=C(C(O)c3ccc(NC(C)=O)cc3)c3ccccc32)cc1 (stereo unspecified),active: 10 µM,–
C[C@@H](C(=O)NCc1ccccc1)N1C(=O)C2CC=CCC2C1=O (stereo partly specified),–,inactive: -7%
CC(C)(C)C(=O)Nc1nc(-c2ccccc2)ns1,"inconclusive [inhibitor, single point]",–

Compound,Potency,"activity change, negative = growth inhibition"
COc1cc(OC)cc(-c2c(-c3cccs3)c3cc(-c4ccc(OC)c(OC)c4)ccc3n2C)c1,"inconclusive [inhibitor, single point]",–
Cc1cccc(C)c1NC(=O)CS(=O)(=O)c1nc(-c2ccc(Cl)cc2)cn1-c1ccccc1,active: 16.4 µM,–
CCC(=O)C1=C(c2ccc(C)cc2)N(C(=O)CC)n2c(nnc2C2CCCCC2)S1,active: 25.9 µM,–
Clc1ccc(CN(CC2CCCO2)C(c2cccs2)c2nnnn2C2CCCC2)cc1 (stereo unspecified),active: 6.51 µM,–
Cc1oc(-c2ccccc2Cl)nc1CSc1nc2c(c(=O)[nH]1)CCC2,"inconclusive [inhibitor, single point]",–
COc1ccc(CC(=O)Nc2cccc(S(=O)(=O)N3CCCC3)c2)cc1OC,active: 18.4 µM,–
Cc1ccc(NC(=O)/C=C/c2ccc([N+](=O)[O-])s2)c(C)c1,active: 3.66 µM,–
O=C(N/N=C/c1ccc2c(c1)OCO2)c1ccc(NC(=O)c2ccc(F)cc2)cc1,"inconclusive [inhibitor, full curve]",–
CCOC(=O)c1nc(NCc2ccc(Cl)cc2)c2c(C)noc2n1,"inconclusive [inhibitor, single point]",–
COc1cccc(C(=O)N2c3cc(C)ccc3OCC2C(C)(C)C)c1 (stereo unspecified),"inconclusive [inhibitor, single point]",–
COc1ccc(-c2cn(-c3ccc(C)cc3)c(=O)n2CC(=O)Nc2ccc(OC)c(OC)c2)cc1,–,inactive: -11.3%
COC(=O)COc1ccc(S(=O)(=O)Nc2ccccc2SC)cc1,–,inconclusive: -32.2% [inhibitor]
COC(=O)/C(=C\Nc1ccc(Cl)cc1Cl)NC(=O)c1ccccc1,"inconclusive [inhibitor, partial curve, poor fit]",–
COc1ccc(NC(=O)CSc2nnc(-c3ccccc3C)n2N)cc1OC,–,inactive: -1.86%
COc1ccc(Cc2nnc(SCC(=O)Nc3ccc(N4CCOCC4)cc3)o2)cc1,–,inactive: -8.8%
COc1ccccc1NC(=O)CN1CCN(CC(=O)Nc2ccc(C)c(F)c2)CC1,active: 16.4 µM,–
CC1(C(=O)Nc2cccc3c2CCCC3)CCN1C(=O)C1(c2ccccc2)CC1 (stereo unspecified),active: 14.6 µM,–
CCOC(=O)N1CCN(C(=O)COc2ccc(S(=O)(=O)NC3CCCCC3)cc2C)CC1,active: 18.4 µM,–
COc1ccc(NC(=O)c2ccc3c(c2)NC(=O)CS3)cc1S(=O)(=O)Nc1ccc(Br)cc1,active: 29.1 µM,–
Cc1ccc(Cn2nc3c4cc(F)ccc4n(Cc4ccc(F)cc4)cc-3c2=O)cc1,–,inactive: 9.26%
Cc1c(Cl)cccc1NC(=O)CCOc1ccccc1,"inconclusive [inhibitor, single point]",–
O=C(CCN1CCCCC1)NNC(=S)NC(=O)c1ccc(Br)cc1,"inconclusive [inhibitor, single point]",–
O=C1C=C(c2ccc3[nH]ccc3c2)C[C@@H](c2ccc(F)cc2)C1,"inconclusive [inhibitor, single point]",–
O=c1c(-c2ccccc2)c[nH]n1-c1cccc([N+](=O)[O-])c1,"inconclusive [inhibitor, partial curve]",–
